86 sequences from the supplement of paper PMC3334620 can be followed below.

The full ranking holds about 33,000 sequences; the median of “E-score (-0.5 to 0.5)” is about -0.011, and the highest 2% start at about 0.28. The list shows a part of the results.

The target in the assay is T1, Gcr1 (UniProt P07261).
T1 sequence: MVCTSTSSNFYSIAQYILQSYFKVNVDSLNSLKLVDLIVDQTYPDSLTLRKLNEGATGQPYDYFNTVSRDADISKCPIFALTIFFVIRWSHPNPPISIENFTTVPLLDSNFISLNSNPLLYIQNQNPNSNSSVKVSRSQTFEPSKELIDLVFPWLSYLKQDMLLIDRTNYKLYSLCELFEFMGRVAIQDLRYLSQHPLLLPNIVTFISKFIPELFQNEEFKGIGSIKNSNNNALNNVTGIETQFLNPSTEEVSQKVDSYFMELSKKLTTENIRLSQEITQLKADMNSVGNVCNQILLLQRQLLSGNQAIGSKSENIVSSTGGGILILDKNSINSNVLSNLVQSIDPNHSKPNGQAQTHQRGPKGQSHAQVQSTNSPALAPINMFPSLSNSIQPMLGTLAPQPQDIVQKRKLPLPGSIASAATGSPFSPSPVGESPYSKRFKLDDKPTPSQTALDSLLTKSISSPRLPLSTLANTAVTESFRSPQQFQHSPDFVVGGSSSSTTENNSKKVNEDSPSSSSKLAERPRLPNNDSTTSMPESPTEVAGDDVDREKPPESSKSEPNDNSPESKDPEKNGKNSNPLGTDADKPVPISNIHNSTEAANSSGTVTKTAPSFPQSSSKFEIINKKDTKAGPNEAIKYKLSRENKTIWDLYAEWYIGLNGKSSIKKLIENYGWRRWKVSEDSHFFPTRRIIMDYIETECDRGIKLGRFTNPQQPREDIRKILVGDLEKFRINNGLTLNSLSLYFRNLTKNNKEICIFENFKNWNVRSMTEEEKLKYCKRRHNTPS
The assay is described as follows: PBM E-score (8-mer binding enrichment) (E-score (-0.5 to 0.5)); higher = stronger / more preferred TF binding; most listed sequences are background and not binding sites. The note with it: protein concentration: 100 nM; construct: GST-full length. How it is done: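 Universal 'all 10-mer' protein binding microarrays (Agilent AMADID 015681) probed with GST-tagged S. cerevisiae TFs (full-length or DBD) made by in vitro transcription/translation (PURExpress), about 100-200 nM. Bound TF was detected with fluorescent anti-GST. Each ungapped 8-mer (which stands for itself and its reverse complement) is scored by the PBM enrichment score (E-score), a modified Wilcoxon-Mann-Whitney statistic from -0.5 to +0.5, computed with the Universal PBM Analysis Suite. Scale: above 0.35 generally sequence-specific binding.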
As to AACATTGT, the “PBM E-score” value worked out at 0.0112.

Take AGTATCCC: the “PBM E-score” value was determined as 0.159.

In the case of TCTCTGAA, the “PBM E-score” value is -0.0468.

Take AATGAAAT: the “PBM E-score” value was found to be 0.214.

On to AACTCGGT, for which the “PBM E-score” value worked out at 0.00894.

With ACCGTCGG, the “PBM E-score” value is -0.257.

In the case of ATCGCCGG, the “PBM E-score” value worked out at 0.123.

For the sequence GCTCCACC, the “PBM E-score” value is -0.0809.

ACCCCTCG: the “PBM E-score” value is -0.122.

For AGTGACTG, the “PBM E-score” value was -0.0392.

As to AGCTCAAC, the “PBM E-score” value was -0.109.

As to AACCCATA, the “PBM E-score” value was 0.153.

Consider GTTTTTAA, for which the “PBM E-score” value was 0.273.

As to CAGGTTAA, the “PBM E-score” value is -0.0725.

Take AAACTCTA: the “PBM E-score” value was 0.0598.

On to CTATGAGA, for which the “PBM E-score” value was -0.0751.

As for AAAATCTA, the “PBM E-score” value stood at 0.13.

For the sequence AGTGCTGC, the “PBM E-score” value is 0.039.

Take CAGTTATC: the “PBM E-score” value is -0.0025.

Regarding CCCGTGCC, the “PBM E-score” value was -0.114.

Take GATGCTAC: the “PBM E-score” value was 0.338.

In the case of ATTCAGTC, the “PBM E-score” value came out at 0.0416.

Turning to AAAATAGA, the “PBM E-score” value turned out to be 0.0544.

For AAATCACA, the “PBM E-score” value turned out to be 0.05.

Consider AGCGGCCA, for which the “PBM E-score” value was determined as 0.0725.

Take CGATCCCC: the “PBM E-score” value turned out to be 0.111.

Turning to ATGATGGC, the “PBM E-score” value is 0.0152.

With AGCTACAA, the “PBM E-score” value worked out at 0.0399.

Regarding ACGAGAGA, the “PBM E-score” value was -0.277.

Consider TAAGCATA, for which the “PBM E-score” value was -0.0359.

As for ATGAAGTC, the “PBM E-score” value was -0.0984.

AATCCACG: the “PBM E-score” value came out at 0.135.

For GTAGGATA, the “PBM E-score” value is -0.109.

As for ACGAGAAG, the “PBM E-score” value is 0.0973.

Turning to CTAGTACC, the “PBM E-score” value is -0.017.

As to ATGGGCCA, the “PBM E-score” value is -0.112.

In the case of ACACGAGA, the “PBM E-score” value worked out at 0.135.

Regarding CAGTCCAA, the “PBM E-score” value was -0.166.

CGCCCGAC: the “PBM E-score” value is -0.00775.

For AAATGGTT, the “PBM E-score” value was 0.0753.

For the sequence AATATAAC, the “PBM E-score” value is -0.048.

As for AATAAACC, the “PBM E-score” value was -0.0512.

For ATTAACGC, the “PBM E-score” value was 0.0245.

TCGCCAGA: the “PBM E-score” value was -0.0962.

As for ACATAAAC, the “PBM E-score” value was 0.106.

For the sequence AGCGGACA, the “PBM E-score” value was -0.0185.

For TACTACAA, the “PBM E-score” value is 0.118.

On to AAGTGTTA, for which the “PBM E-score” value is -0.144.

For ACCGAAAG, the “PBM E-score” value was -0.0319.

Consider AGACAGCA, for which the “PBM E-score” value is -0.109.

In the case of CATACTCG, the “PBM E-score” value was -0.102.

In the case of AAAAAAGA, the “PBM E-score” value worked out at 0.267.

As to ACGTGATA, the “PBM E-score” value is -0.0863.

For the sequence TCACCGAA, the “PBM E-score” value was 0.0527.

Consider AATTAGCA, for which the “PBM E-score” value is 0.0964.

CTACTCGA: the “PBM E-score” value was determined as 0.0442.

Consider AGGGTAGC, for which the “PBM E-score” value was -0.37.

Consider GGGTGAAA, for which the “PBM E-score” value is -0.088.

Regarding AGATTAAG, the “PBM E-score” value was 0.0255.

With GGTGTCTA, the “PBM E-score” value came out at 0.0118.

Regarding AGAGCACC, the “PBM E-score” value was found to be 0.163.

As to ATTAACTC, the “PBM E-score” value came out at 0.0558.

As to TGGCGCAA, the “PBM E-score” value is -0.0289.

For the sequence GCCGTGAA, the “PBM E-score” value is -0.0368.

As to AGTCGACG, the “PBM E-score” value was -0.0927.

Consider GTGTGCTA, for which the “PBM E-score” value was -0.037.

As for ATAACACC, the “PBM E-score” value was -0.0694.

In the case of AATGAAAG, the “PBM E-score” value was -0.0494.

For the sequence AAGAGTCA, the “PBM E-score” value is -0.077.

For AGCGAGTG, the “PBM E-score” value was -0.206.

Take TCAATACA: the “PBM E-score” value turned out to be 0.128.

Regarding CGGTATGA, the “PBM E-score” value was -0.0622.

For the sequence GAGCGTCA, the “PBM E-score” value was 0.0398.

Regarding GAGCGAAC, the “PBM E-score” value was -0.28.

In the case of AGCCGAGC, the “PBM E-score” value is -0.0751.

In the case of CATGCGTC, the “PBM E-score” value is -0.0513.

Consider ATATCTCG, for which the “PBM E-score” value was -0.0555.

Regarding ACCCGGGC, the “PBM E-score” value was determined as 0.0885.

Consider ATAAGCAG, for which the “PBM E-score” value was 0.155.

In the case of CCTAGAGG, the “PBM E-score” value was determined as 0.0618.

For the sequence GTTGACCA, the “PBM E-score” value was -0.0401.

Consider AAGTTACT, for which the “PBM E-score” value was 0.119.

For the sequence ACTATACC, the “PBM E-score” value came to 0.109.

As to CGTACGGA, the “PBM E-score” value came to 0.101.

Turning to CACCCCGA, the “PBM E-score” value worked out at 0.206.

As for TGTTCTAA, the “PBM E-score” value turned out to be 0.0359.
